Source: the antibiotic and cytotoxicity screens of Wong et al. (2023)
The other results are listed elsewhere or left out.

test system: HSkMC (human skeletal muscle cells); test: cytotoxicity call (relative viability < 0.9); details: 10 µM

Compound | cytotoxicity call
CC(C)NC(=O)N[C@H]1CCCCNC1=O | inactive
CC(C)NC(=O)N(C)C[C@@H]1Oc2c(NC(=O)NC3CCCCC3)cccc2C(=O)N([C@@H](C)CO)C[C@@H]1C | inactive
CC(=O)N1CCCN(S(=O)(=O)N2CCOCC2)CC1 | inactive
Cc1noc(C)c1NC(=O)N(C)C[C@@H]1OCCCC[C@H](C)Oc2ccc(NS(=O)(=O)c3ccc(F)cc3)cc2C(=O)N([C@@H](C)CO)C[C@@H]1C | inactive
COc1ccc(S(=O)(=O)N(C)C[C@@H]2Oc3c(NS(=O)(=O)c4ccccc4)cccc3C(=O)N([C@@H](C)CO)C[C@@H]2C)cc1 | inactive
C[C@@H]1CN([C@@H](C)CO)C(=O)Cc2cc(NC(=O)NC3CCCCC3)ccc2O[C@H]1CN(C)C(=O)Nc1cccc2ccccc12 | inactive
COCCNC(=O)C[C@@H]1C[C@H]2c3cc(NC(=O)Nc4ccc(C(F)(F)F)cc4)ccc3O[C@H]2[C@@H](CO)O1 | inactive
C[C@H](CO)N1C[C@H](C)[C@@H](CN(C)C(=O)Nc2cc(F)ccc2F)Oc2cc(/C=C/c3ccccc3)ccc2S1(=O)=O | inactive
O=C(NCC1CC1)c1cc2c(c(-c3cccc(-c4ccccc4F)c3)n1)[C@@H](CCO)N(C(=O)CC1CC1)C2 | inactive
COc1ccc(S(=O)(=O)N(C)C[C@@H]2OCCCC[C@@H](C)Oc3ccc(NC(=O)Nc4c(C)noc4C)cc3C(=O)N([C@H](C)CO)C[C@@H]2C)cc1 | inactive
Cc1noc(C)c1NC(=O)N(C)C[C@@H]1Oc2ccc(NS(C)(=O)=O)cc2C(=O)N([C@@H](C)CO)C[C@H]1C | inactive
